Assay results from PubChem BioAssay AID686970 (National Center for Advancing Translational Sciences (NCATS), 2013).
Out of some 360,000 compounds screened, about 6,000 (1.7%) were called active. Inconclusive means that the source gave no clear call. Such entries were picked first, then a sample of the others. The call rests on the fitted dose curve; in most records, active means well fitted cell-killing curve with a large enough effect; inconclusive means small, poorly fitted or top-dose-only effect, or effect the other way; inactive means flat fitted curve, though single readings scatter. Potencies of inconclusive entries are left out as doubtful fits.

Assay: qHTS for induction of synthetic lethality in tumor cells producing 2HG: qHTS for the HT-1080-NT fibrosarcoma cell line;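 further: NT is the 2HG producing partner of a matched IDH1 knockdown line; nearly all actives have a fitted effect of over 55% in size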;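 on activity, negative = less viability: 0% = DMSO-treated cells and -100% = media-only wells without cells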
Details: HT-1080-NT fibrosarcoma viability, CellTiter-Glo ATP luminescence, 48 h; activity, negative = less viability: at 46.1 µM (top of the series) unless noted
Summary of the method: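 Toxicity toward the 2HG-producing NT line was scored as %Activity, normalised to DMSO and no-cell wells, from CellTiter-Glo luminescence after 48 hours' treatment.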
Potency means the concentration at half of the fitted maximal effect; tags describe the fitted curve by direction and shape.

Compound | Potency | activity, negative = less viability
Cc1nc2ccccc2c(=O)n1/N=C/c1ccc2ccccc2c1O | inconclusive [cytotoxic, single point] | –
COc1ccc(C(=O)CCN2CCCCCC2)cc1 | inconclusive [cytotoxic, single point] | –
CC(=O)Nc1ccc(-c2ccnc3c2CC(C(=O)NCc2ccco2)O3)cc1 (configuration not stated) | inconclusive [cytotoxic, full curve] | –
O=C1Oc2ccccc2C(=O)/C1=C/N1CCN(c2ccccc2F)CC1 | inconclusive [cytotoxic, partial curve] | –
COCCN(C(=O)COC(=O)c1ccccc1Nc1ccccc1)c1c(N)n(Cc2ccccc2)c(=O)[nH]c1=O | inconclusive [cytotoxic, single point] | –
CCC(NC(=O)c1[nH]c(C)c(C(C)=O)c1C)c1ccc(Br)cc1 (configuration not stated) | inconclusive [cytotoxic, partial curve] | –
Cc1ccc(Cc2c(C)nc3nc(SCC(=O)NCc4ccco4)nn3c2C)cc1 | inconclusive [cytotoxic, full curve] | –
O=S(CC(O)(c1ccccc1)c1ccccc1)CC(O)(c1ccccc1)c1ccccc1 | inconclusive [cytotoxic, single point] | –
COc1ccc(-c2cnnc(N/N=C/c3ccc(O)c(O)c3)n2)cc1 | inconclusive [cytotoxic, partial curve] | –
Cn1c(SCC(=O)N/N=C/c2ccc([N+](=O)[O-])s2)nnc1-c1ccccc1 | active: 20.6 µM | –
CSc1ncccc1C(=O)N1CCCC(Nc2ccc(C)c(C)c2)C1 (configuration not stated) | – | inactive: -5.42%
COc1ccc(NC(=S)NC(NC(=O)c2ccccc2Cl)C(Cl)(Cl)Cl)c([N+](=O)[O-])c1 (configuration not stated) | inconclusive [cytotoxic, single point] | –
COc1ccc(CN(C(=O)CSc2nnc(-c3c[nH]c4ccccc34)o2)c2ccc(F)cc2)cc1OC | inconclusive [cytotoxic, single point] | –
CCC1C/C(=C\c2cc(OC)c(OC)cc2OC)C(=O)/C(=C/c2cc(OC)c(OC)cc2OC)C1 (configuration not stated) | active: 13 µM | –
Nc1c(C(=O)Nc2ccccc2)sc2ncc([N+](=O)[O-])cc12 | inconclusive [cytotoxic, partial curve, poor fit] | –
Cc1ccc2c(c1)c1c(n2CC(O)Cn2nc(C)c(Br)c2C)CCCC1 (configuration not stated) | inconclusive [cytotoxic, single point] | –
COc1ccc(CCN(C)Cc2ccc(OCc3ccccc3)c(OC)c2)cc1OC | inconclusive [cytotoxic, single point] | –
Cc1ccc(-c2nc(Nc3cccc(O)c3)c3ccccc3n2)cc1 | inconclusive [cytotoxic, single point] | –
O=C1NC(c2ccc(-c3ccccc3[N+](=O)[O-])o2)C(C(=O)c2ccc(Cl)cc2)C(O)(C(F)(F)F)N1 (configuration not stated) | active: 16.4 µM | –
CCc1cccc(CC)c1N(COC)C(=O)Cn1nnc2ccccc21 | – | inactive: -4.55%
Cc1cc(NC(=O)CSc2nnnn2-c2ccc(F)cc2)no1 | – | inactive: -1.26%
CCCCN(C=O)c1c(CC)nc2ccc(C(=O)N3CCN(c4ccccc4)CC3)cn12 | – | inactive: 0.244%
O=C(Oc1ccccc1C(=O)Nc1ccccc1)c1ccc(Br)c([N+](=O)[O-])c1 | inconclusive [cytotoxic, single point] | –
Cc1ccc2nc(C3CCN(C(=O)c4ccco4)CC3)[nH]c2c1 | – | inconclusive: 4.74% [cytotoxic]

Compound | Potency | activity, negative = less viability
Cc1cc(C(c2nnnn2Cc2ccccc2)N2CCOCC2)c(C)n1-c1ccc2c(c1)OCO2 (configuration not stated) | inconclusive [cytotoxic, single point] | –
COCCNC(=O)/C(C#N)=C/C(C)=C/c1ccccc1 | inconclusive [cytotoxic, single point] | –
O=C(C(O)c1ccccc1)N1CCN(S(=O)(=O)c2ccc(F)c(F)c2)CC1 (configuration not stated) | – | inactive: 20.4%
CS(=O)(=O)N(CC(=O)Nc1cccc(Cl)c1Cl)c1ccccc1 | – | inactive: -10.4%
COc1ccc(C(=O)c2[nH]c(N)c(C(=O)NCCc3c[nH]c4ccccc34)c2-c2ccc(Cl)c(F)c2)cc1 | inconclusive [cytotoxic, single point] | –
CCN(CC)CCCNC(=O)c1[nH]c2ccccc2c1Sc1ccc(Cl)cc1 | active: 20.6 µM | –
COc1ccc(-n2ncc3c(=O)n(CC(=O)N(C(C)C)C(C)C)cnc32)cc1 | inconclusive [rising, partial curve, poor fit] | –
CCOc1ncccc1C(=O)NCc1ccc(OC)cc1 | inconclusive [cytotoxic, single point] | –
CC(C)Sc1nc(-c2cccs2)nc2cc(Cl)ccc12 | – | inactive: 26%
COc1ccc(C(NC(=O)C2CCN(CCOc3ccc(Cl)cc3)CC2)c2cccs2)cc1 (configuration not stated) | active: 20.6 µM | –
CCc1nnc(NC(=O)c2ncc(Cl)c(Cl)c2Cl)s1 | – | inactive: -0.227%
COc1ccc(-c2csc(C(C)(O)c3ccccc3)n2)cc1 (configuration not stated) | inconclusive [cytotoxic, single point] | –
Cc1ccccc1NC(=O)CSc1nc2cc3c(cc2cc1C)CCC3 | inconclusive [cytotoxic, full curve] | –
N=c1c2c(n(Cc3cccc(Cl)c3)c3c1CCC3)CCCC2 | active: 6.31 µM | –
Cc1cccc(/C=N/NC(=O)c2c(-c3ccccc3)noc2C)c1O | – | inconclusive: -33% [cytotoxic]
Cc1cc(C)c(CN2CCN(C(=O)Cn3cnc4c(OCc5ccccc5)ncnc43)CC2)c(C)c1 | inconclusive [cytotoxic, partial curve] | –
CCN(CC)CCCNC(=O)c1ccc2c(Cl)c3c(nc2c1)CCCC3 | active: 23.1 µM | –
CC(C)(C)c1ccc(S(=O)(=O)NC(=O)C2(C)CCN2C(=O)Cc2ccc(-c3ccccc3)cc2)cc1 (configuration not stated) | inconclusive [cytotoxic, single point] | –
c1ccc(CN2CCC3(CCCc4ccccc43)CC2)cc1 | inconclusive [cytotoxic, single point] | –
CNCC[C@@H](Oc1ccccc1C)c1ccccc1 | inconclusive [cytotoxic, single point] | –
O=C(c1sccc1-c1ccccc1)N1CCN(S(=O)(=O)c2ccccc2)CC1 | – | inactive: -1.01%
COC(=O)c1ccccc1NC(=O)N1CCN(c2ccc(OC)cc2)CC1 | – | inconclusive: 34.5%
O=C(COC(=O)CCC(=O)c1ccc(F)cc1)Nc1cccc(S(=O)(=O)N2CCOCC2)c1 | – | inactive: -0.163%
C/C(N)=C(/C#N)C(=O)CSc1nnc(COc2cc(C)ccc2C)o1 | – | inactive: -6.17%

Compound | Potency | activity, negative = less viability
O=C(Nc1ccc2oc(-c3cccnc3)nc2c1)c1cccnc1 | – | inactive: 11.5%
CC(C)(C)C1CCC2(CC1)C(C#N)=C(SCC(=O)Nc1ccccc1)NC(=O)C2C#N (configuration not stated) | active: 14.6 µM | –
Cc1ccc(C)c(NS(=O)(=O)c2cc(C(=O)NCCSC3CCCCC3)ccc2C)c1 | inconclusive [cytotoxic, single point] | –
O=C(CCc1ccc(O)cc1)NN=Cc1ccc2c(c1)OCO2 | inconclusive [cytotoxic, partial curve] | –
O=C(CCl)Nc1ccc2c(c1)OCO2 | active: 9.2 µM | –
COc1cccc(Cn2c3ccc(NC(=O)CCc4ccc(F)cc4)cc3c(=O)n2C)c1 | inconclusive [cytotoxic, full curve] | –
O=C(NC(=S)Nc1ncc(Br)cc1Br)c1cncc(Br)c1 | inconclusive [cytotoxic, single point] | –
Cc1ccsc1/C=N/Nc1ncc(Cl)cc1Cl | inconclusive [cytotoxic, single point] | –
O=C(c1ccc2nsnc2c1)N1CCN(c2ccc([N+](=O)[O-])cc2)CC1 | inconclusive [cytotoxic, single point] | –
CCOC(=O)CSc1nnc(-c2ccoc2C)n1-c1ccc(OCC)cc1 | – | inconclusive: 1.73% [cytotoxic]
COc1ccc(CCn2c(-n3nc(C)cc3C)nc3c2c(=O)[nH]c(=O)n3C)cc1 | inconclusive [cytotoxic, full curve] | –
N#C/C(C(=O)NCc1ccco1)=C1/SC=C(c2ccccc2)N1c1ccccc1 | – | inactive: -14.4%
Cc1nc(-c2ccc(NC(=O)c3ccccc3)cc2)cs1 | inconclusive [cytotoxic, single point] | –
CCN(CC)S(=O)(=O)c1cccc(-c2csc(C)n2)c1 | – | inconclusive: 11.6%
O=Cc1ccccc1OCc1ccc2c(c1)OCO2 | inconclusive [cytotoxic, single point] | –
O=C1C(F)=CC(COC(c2ccccc2)(c2ccccc2)c2ccccc2)OC1n1cc(F)c(=O)[nH]c1=O (configuration not stated) | inconclusive [cytotoxic, single point] | –
Cc1nc2cc(-c3ccccc3)sc2c(=O)n1N | active: 3.66 µM | –
Clc1cc(Cl)c(Cl)cc1Cl | – | inactive: 7.6%
O=C(CSc1nnc(-c2ccccc2)c(-c2ccccc2)n1)NC1CCS(=O)(=O)C1 (configuration not stated) | – | inactive: 9.68%
COc1ccc(Oc2c(Cl)cnn(-c3ccccc3)c2=O)cc1 | active: 18.4 µM | –
CCOC(=O)c1c(NC(=O)c2ccccc2C(=O)O)sc2c1CCCC2 | – | inactive: -2.26%
Nc1nc(NCCOCCO)nc(NCc2ccccc2)c1[N+](=O)[O-] | – | inactive: -6.44%
CC(/C=C/c1ccc2c(c1)OCO2)=N/NC(=O)CNc1ccc(C)cc1 | inconclusive [cytotoxic, single point] | –
CCOc1ccc2[nH]c(=O)c(CN(Cc3cccs3)C(CC)c3nnnn3C(C)(C)CC)cc2c1 (configuration not stated) | inconclusive [cytotoxic, partial curve] | –
